Measured values reported in paper PMC10668032.
The other results are listed elsewhere or left out. At the low end of the ranking, values are background and their order means little.

biological target: SIX1-Q177R homeodomain (UniProt Q15475); assay: universal protein binding microarray; conditions: Universal all-10-mer PBM (8x60K, AMADID 030236), 300 nM GST-tagged protein, Alexa Fluor 488 anti-GST; buffer, salt, pH and temperature not stated; high values mean tight binding; most listed sequences are background and not binding sites; double strand, one strand shown

Row | Sequence | binding signal [E-score]
1 | CCGGGTCG | 0.248
2 | CACCTGGA | 0.224
3 | AACGATAA | -0.268
4 | CTTAGCGA | -0.0464
5 | CCTTATTC | -0.187
6 | CAAACCAA | -0.151
7 | AACGTACG | -0.237
8 | CGCCATGA | -0.0432
9 | GAAAACCA | -0.142
10 | AAGGCACG | -0.193
11 | GGCGCATA | 0.026
12 | TCAAACCA | -0.0387
13 | CACCGCAC | 0.333
14 | AGACTTGC | -0.22
15 | ATAGGATG | -0.26
16 | TGGGTACA | 0.29
17 | AGAGTCTG | -0.271
18 | AATTGAGT | 0.0195
19 | CTAGATAC | 0.165
20 | CCCTCATC | 0.0516
21 | AGGTCGTG | 0.264
22 | ACTTTACA | 0.228
23 | GAGGCCCA | -0.197
24 | ACTCACGG | -0.117
25 | CGCCAGGC | 0.0238

Row | Sequence | binding signal [E-score]
26 | CTTTAAGA | -0.134
27 | CGTTACAG | -0.0829
28 | TAATCAGA | 0.0787
29 | ACGGTGAG | 0.0108
30 | GACCCACC | 0.116
31 | CGCATAGA | -0.206
32 | GTTCAGGA | 0.144
33 | CTTTTACC | -0.0946
34 | AATAATCG | -0.0864
35 | CCGGGTCC | 0.12
36 | GGCCTTGA | -0.0493
37 | AGGCTGAA | -0.0346
38 | CTGGTCCC | -0.0616
39 | CTAACGAC | -0.159
40 | CTACCGGC | -0.0956
41 | AAGTGTTA | 0.393
42 | TCGCAGAA | -0.0466
43 | ACTAAGTA | -0.15
44 | ATTCAGAA | -0.314
45 | CGATCGGA | 0.0184
46 | GCACGTAC | 0.00092
47 | ATCGCCCC | 0.121
48 | ACAACCAC | -0.0534
49 | TCCGCCGA | 0.132
50 | AGAAACAG | -0.16

Row | Sequence | binding signal [E-score]
51 | ACCCAGCA | 0.0937
52 | GATAAGAC | -0.184
53 | TACCTATA | 0.129
54 | ATAAAGCC | -0.256
55 | CGAATACC | 0.0724
56 | CACCATCC | 0.252
57 | GAGAACGC | -0.0345
58 | ATTATCAG | -0.053
59 | GCACAACA | 0.156
60 | AGTAGTGC | -0.0575
61 | ACTAATTA | -0.0376
62 | AGTCCTAC | 0.0528
63 | TACCGACA | 0.166
64 | GTCCGTTA | 0.062
65 | GGACAAGA | -0.0831
66 | TAGTATCA | 0.221
67 | GAGTCTGA | -0.212
68 | ACTGAGTG | 0.177
69 | ACGGCACA | 0.0506
70 | ACTAATCC | 0.0475
71 | CTGCAGAA | -0.162
72 | CGACACAA | 0.201
73 | CACCCTCA | 0.264
74 | GACCCCAA | 0.128
75 | GGTAAATA | 0.0192

Row | Sequence | binding signal [E-score]
76 | AGCCGCAT | -0.162
77 | ACGCTCGA | -0.004
78 | AAGCAAAT | -0.201
79 | AATCGTCC | -0.1
80 | ACGTCTCT | -0.184
81 | GGTTGGGA | -0.113
82 | CGAATAGC | -0.119
83 | AGGACCCG | -0.0245
84 | AGATACGG | -0.0698
85 | GCGAATAA | -0.187
86 | ACTTGACC | -0.0106
87 | CCTTTATC | -0.0437
88 | TCGAGAAA | -0.125
89 | ATCGACAC | 0.436
90 | GACCCATC | 0.0469
91 | CAAAGTAG | -0.067
92 | CACTCGGC | 0.237
93 | CATTTACA | 0.267
94 | TCCCTAAA | -0.0962
95 | GAACCTTC | -0.0582
96 | ATTGTTTA | -0.233
97 | ACGCAAAC | -0.00923
98 | AGCTACGA | -0.0562
99 | CCGCTGGC | 0.000735
100 | ATCCCCTC | 0.196

Row | Sequence | binding signal [E-score]
101 | AACCGGTG | 0.299
102 | AAGGCTGC | -0.0775
103 | CGCCGACG | -0.0974
104 | CTTTGCTA | 0.0142
105 | GGTCTGCA | -0.0446
106 | AATCCGCC | -0.206
107 | CGGTTGAC | -0.0908
108 | AATTACGT | -0.0689
109 | AGCTAGTG | 0.0541
110 | CCAGGCCA | 0.00406
111 | AATTGGTA | -0.0831
112 | ACATCGAT | -0.00548
113 | GTGAAGAA | -0.191
114 | ATTAAGGC | -0.00568
115 | CTCACTTA | 0.00681
116 | AGGATATA | -0.125
117 | TTCGAGAA | -0.112
118 | CATAAAGA | -0.228
119 | AATAAATC | -0.26
120 | AAAAGTCG | -0.107
121 | CATGAAGG | -0.0771
122 | CTAGCCAG | -0.3
123 | GATGAAGC | -0.0285
124 | GCCATAAC | -0.0991
125 | CTCGCATA | 0.0695

Row | Sequence | binding signal [E-score]
126 | AAGGAATG | -0.341
127 | TCATAAAA | -0.22
128 | CACGCCAC | 0.147
129 | GATTTCGA | -0.347
130 | ATTTTCAG | -0.0505
131 | CGGACGCC | 0.0275
132 | CTGTTCAC | 0.012
133 | ACAGTCGT | -0.168
134 | TCAGTTAA | -0.141
135 | CCTATATC | 0.0423
136 | ATCGATGC | 0.0132
137 | CTGGCCAG | -0.153
138 | CATCTATC | -0.152
139 | GATGACAA | -0.103
140 | GATATCTA | -0.136
141 | ACGACAAA | -0.193
142 | CCTCGTAC | 0.0049
143 | GAGCGAAA | -0.0904
144 | CGCTCTGC | -0.14
145 | GCCGTTCA | -0.156
146 | GCCGTTAC | -0.0494
147 | TCACAAAA | -0.0854
148 | GTCCGCTA | -0.0266
149 | CCGGCCAA | -0.0692
150 | ATAACTAG | -0.0059

Row | Sequence | binding signal [E-score]
151 | TACGCCAA | 0.0711
152 | CTCACTCA | -0.185
153 | TGAGCCCA | -0.0468
154 | AGCGCGTG | 0.126
155 | GAGGTCGC | -0.119
156 | CCTCAAAG | 0.125
157 | ACAGGGTA | 0.207
158 | CTGGTCAC | -0.0176
159 | ATACGAAT | -0.00302
160 | TCCCGCCA | -0.0626
161 | GGCCTAAA | -0.222
162 | ATCAAATA | -0.0441
163 | ATTGATTC | -0.0356
164 | CTCGAAGC | -0.206
165 | CGAAGTAG | 0.018
166 | GGTGCGTA | 0.161
167 | CTCGACGA | -0.162
168 | ACATGCAC | 0.0917
169 | ATTCTTCG | -0.138
170 | ATCGAAGA | -0.0101
171 | AATCTGGG | -0.152
172 | AATGCATG | -0.0402
173 | AGATCAGC | -0.0988
174 | CTAAGAAC | -0.105
175 | ATACTCGA | 0.0501

Row | Sequence | binding signal [E-score]
176 | ATATAAAC | -0.206
177 | AGACAGCA | -0.197
178 | GAGGCCGA | -0.161
179 | CGTCAACC | -0.0357
180 | GCATGGGC | -0.163
181 | CCAAAGGG | 0.0504
182 | CCATGTAA | -0.167
183 | CTACGGAC | 0.00198
184 | ATAAAACG | -0.0934
185 | ACTAAGCG | -0.0449
186 | AGATATAC | -0.0243
187 | AACACTGG | 0.373
188 | AGATTATG | -0.0365
189 | CCTGGGAC | 0.0224
190 | GGCAGATA | -0.0504
191 | TATAGGCA | -0.223
192 | ACGGTATG | -0.0684
193 | GCTAATAC | 0.0371
194 | GGTATTTA | -0.0579
195 | CCTGGCTC | -0.114
196 | GGCTTCAC | -0.216
197 | TAAAACTA | 0.0316
198 | GAGTTCCC | -0.0114
199 | CGTCTGCC | -0.0793
200 | CAACTTGA | -0.144

Row | Sequence | binding signal [E-score]
201 | AAATAAAG | -0.139
202 | CACATACC | 0.0638
203 | GCCAATTA | -0.222
204 | GCATCAGC | -0.104
205 | ATAGCAAA | -0.12
206 | GTGCTTAA | 0.0202
207 | ATATATCG | -0.169
208 | CGATTCTC | -0.0426
209 | GGCAGGAA | -0.0362
210 | CTGGCACC | 0.11
211 | CATCCCCG | -0.0232
212 | AAGCTCGT | -0.0677
213 | AAGTTCGA | -0.0213
214 | AGGCGGGG | 0.159
215 | AGTCGGTA | -0.139
216 | GCATAGCC | -0.21
217 | AGACATGA | 0.0383
218 | ATCTTCGC | -0.126
219 | CTAATGTC | -0.0267
